Data: patent publication US8378115B2, “Monomethine dyes” (Thermo Fisher Scientific (Milwaukee) LLC, priority 2007, dated 2013)

Tested on: 94 base pair (bp) product from the Human GAPDH gene
Assay: Real-time PCR with dye, 94 bp GAPDH product
Description: Real-time PCR was performed in 25 μL volumes on a Stratagene® MX3005p (Stratagene, La Jolla Calif.). The following PCR protocol was used to amplify a 94 base pair (bp) product from the Human GAPDH gene; 95° C.×10 min, followed by 45 cycles of 95° C.×20 sec, 60° C.×20 sec, and 72° C.×22 sec (data collected at 72° C. step). Each amplification reaction (25 μL) included 10 ng of Human Genomic DNA template (Sigma), 200 μM of each dNTP, 3 mM MgCl2, 50 mM KCL, 10 μm EDTA, 10 mM Tris, 5% DMSO, 70 nM of both forward (5′ ACAGTCAGCCGCATCTTCTT) and reverse (5′ ACGACCAAATCCGTTGACTC) primers, and 0.625 units of Taq DNA polymerase (Thermo Scientific). The dyes were included at varying concentrations. ABsolute™ QPCR SYBR® Green master mix (Thermo Scientific) was used for amplification when SYBR® Green I was required as the indicator. No template control (NTC) reactions without DNA were also included. The fluorescent signal was monitored in the following five channels (nm excitation/nm emission): 492/516, 535/555, 545/568, 585/610, and 635/665. Presence of amplicon was determined using post-amplification melt-curve analysis (95° C.×60 sec×1 cycle, 60° C.×30 sec×1 cycle followed by 95° C.×30 sec (with continuous data collection during ramping)) and agarose gel electrophoresis. […]

SMILES	inhibition of PCR with increasing amounts of dye (80, 120, 160 ng dye in 25 μL, 535/555 nm filter set)	dye amounts that inhibited PCR (25 μL reaction, 492/516 nm filter set)
CCN(CCCN(C)C)c1ccc2c(/C=C3\Sc4ccccc4N3CC)cc(C(C)(C)C)[o+]c2c1 [Dye V02-07015]	No inhibition of PCR was observed	–
CCN(CC)c1ccc2c(/C=C3\Sc4ccccc4N3C)cc(N(C)CCCN(C)C)[o+]c2c1 [Dye V02-07027]	–	greater than 80 ng
